Among all 310,000 compounds or so, about 2,200 (0.71%) showed an effect of 50% or more. The effect is printed as a negative number. This is one part of the list.
biological target: human ether-à-go-go-related gene (hERG) potassium channel (human, UniProt Q12809); experiment: primary screen, population patch clamp on CHO cells stably expressing hERG
Sequence (Q12809 whole entry, looked up): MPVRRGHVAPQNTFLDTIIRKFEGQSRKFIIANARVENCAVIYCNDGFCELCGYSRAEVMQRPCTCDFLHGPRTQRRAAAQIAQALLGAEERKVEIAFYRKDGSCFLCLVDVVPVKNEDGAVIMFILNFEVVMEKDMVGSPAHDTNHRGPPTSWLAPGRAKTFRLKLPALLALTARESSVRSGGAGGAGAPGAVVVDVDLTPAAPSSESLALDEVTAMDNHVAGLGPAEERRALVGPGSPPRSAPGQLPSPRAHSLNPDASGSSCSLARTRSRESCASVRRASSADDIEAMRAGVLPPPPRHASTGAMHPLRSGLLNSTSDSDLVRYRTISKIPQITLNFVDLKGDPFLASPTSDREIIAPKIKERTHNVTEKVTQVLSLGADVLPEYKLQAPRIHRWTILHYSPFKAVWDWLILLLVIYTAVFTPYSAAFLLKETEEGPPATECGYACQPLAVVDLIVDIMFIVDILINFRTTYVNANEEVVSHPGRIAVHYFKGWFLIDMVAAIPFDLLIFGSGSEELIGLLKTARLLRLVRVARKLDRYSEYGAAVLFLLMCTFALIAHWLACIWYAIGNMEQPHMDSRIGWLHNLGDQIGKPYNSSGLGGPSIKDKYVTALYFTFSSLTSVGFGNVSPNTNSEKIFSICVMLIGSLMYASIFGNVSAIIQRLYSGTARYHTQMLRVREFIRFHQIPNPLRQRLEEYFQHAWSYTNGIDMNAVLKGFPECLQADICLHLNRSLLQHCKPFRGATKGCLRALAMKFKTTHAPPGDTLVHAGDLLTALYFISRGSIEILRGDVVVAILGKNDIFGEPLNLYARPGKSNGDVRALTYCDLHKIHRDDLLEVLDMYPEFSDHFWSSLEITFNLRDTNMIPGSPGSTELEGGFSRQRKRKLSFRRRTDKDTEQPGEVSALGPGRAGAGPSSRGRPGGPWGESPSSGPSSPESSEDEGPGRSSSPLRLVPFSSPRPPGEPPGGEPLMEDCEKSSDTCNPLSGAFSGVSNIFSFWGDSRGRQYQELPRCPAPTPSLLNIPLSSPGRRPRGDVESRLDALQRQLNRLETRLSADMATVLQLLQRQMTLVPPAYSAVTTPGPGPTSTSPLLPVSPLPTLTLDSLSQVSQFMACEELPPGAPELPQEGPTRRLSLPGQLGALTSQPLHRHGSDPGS

Structure (SMILES) | hERG current change (%, negative = inhibition) at 1uM
Cn1c(/C(C#N)=C(\O)c2ccc(Cl)s2)nc2ccccc21 | 10.3%
CN(C)C(CNC(=S)Nc1ccc(Cl)cc1)c1cccnc1 (stereo not shown) | -2.39%
COc1ccc(C2C=C(c3ccc(Br)cc3)Nc3nc(NS(C)(=O)=O)nn32)cc1 (stereo not shown) | 11.5%
COc1cc(CNn2nnnc2N)cc(Br)c1OCC(=O)NC(C)(C)C | 0.783%
CC1CC(C)(C)NC(=S)N1CCC(=O)N1c2ccccc2CC1C (stereo not shown) | 7.04%
CCN(C(=O)CN1CCN(C)CC1)c1c(N)n(Cc2ccccc2)c(=O)[nH]c1=O | -0.443%
CCN1CCc2c(OCC(=O)N3N=C(c4cccs4)CC3c3ccc(F)cc3)cccc2C1=O (stereo not shown) | -8.94%
COc1ccc(CCNC(=O)C(=O)NCC2CCCN2S(=O)(=O)c2cccs2)cc1 (stereo not shown) | 18.7%
Cc1ccc(S(=O)(=O)N2CCN(C(=O)C3Cc4ccccc4CN3C(=O)c3ccco3)CC2)cc1 (stereo not shown) | 1.64%
Cc1ccc(/C([O-])=C(/C(=S)Nc2ccc(SC(F)F)cc2)[n+]2ccccc2)cc1[N+](=O)[O-] | 13.8%
CN(C(=O)c1ccccc1)c1ccc(OCC(=O)NC2CCS(=O)(=O)C2)cc1 (stereo not shown) | 14%
COc1ccc(Cn2c(SCC(=O)NCc3ccco3)nc3ccsc3c2=O)cc1 | 0.371%
CCc1cccc(CC)c1NC(=O)C1CCN(C(=O)c2ccco2)CC1 | 8.46%
COc1ccc(CCN(C)C2CCCN(S(=O)(=O)c3ccccc3F)C2)cc1OC (stereo not shown) | -45.9%
Cc1ccc(S(=O)(=O)Nc2ccncc2)c(C)c1.Cl | 7.15%
CC(=O)Nc1ccc(S(=O)(=O)NCCC(=O)OCc2nc(N)nc(Nc3ccccc3C)n2)cc1 | 11.8%
CN(Cc1ccccc1)C(=O)c1[nH]cnc1C(=O)Nc1cccc(Cl)c1 | 17.9%
CCCOP(=O)(OCCC)C(NC(=O)c1cc(OC)c(OC)c(OC)c1)c1ccccc1 (stereo not shown) | 8.5%
Cc1nc2ccccc2n1Cc1n[nH]c(=S)n1-c1ccc(Cl)cc1 | 9.06%
CN(c1cccc(NC(=O)CSc2ccc(Cl)cc2)c1)S(C)(=O)=O | 0.236%
O=C(NCC(=O)N(Cc1ccccc1)C(C(=O)NC1CCCC1)c1cccnc1)c1ccco1 (stereo not shown) | 22.5%
Cc1sc2ncn(/N=C/c3ccco3)c(=O)c2c1C | 6.44%

Structure (SMILES) | hERG current change (%, negative = inhibition) at 1uM
CCCc1cc(=O)[nH]c(SCC(=O)Nc2sc(C(N)=O)c(C)c2C(=O)OCCOC)n1 | 6.92%
O=C(CN1CCCCC1)N1CCCc2ccccc21.O=C(O)C(=O)O | 9.31%
Cc1cccn2c(=O)c(/C=N/O)c(N3CCCC3)nc12 | 3.73%
CCCNc1c(NS(=O)(=O)c2ccc(C)cc2C)c(=O)oc2ccccc12 | -36.7%
Cc1ccccc1-n1c(SCC(=O)O)nc2sc3c(c2c1=O)CCCC3 | 11.2%
CCOC(=O)N1CCN(Cc2nnc(-c3ccccc3Cl)o2)CC1.Cl | 16.4%
COc1ccc(OC)c(Cc2nnc(CCC(=O)N3CCCCCC3)o2)c1 | 11.7%
CC1CN(C(=O)/C=C/c2ccc3c(c2)OCO3)CC(C)O1 (stereo not shown) | -17.9%
CC(C)Oc1ccc(C(=O)NC2CCS(=O)(=O)C2)cc1 (stereo not shown) | 4.64%
COc1ccc(CN(C(=O)c2cc(=O)c3cc(C)cc(C)c3o2)C2CCS(=O)(=O)C2)cc1 (stereo not shown) | 6.89%
Cc1oc(-c2cccc(Cl)c2)nc1CS(=O)(=O)CC(=O)NCCCN1CCOCC1 | 14.6%
Cc1ccc(S(=O)(=O)NC(C)C(=O)N2CCOCCOCCOCCOCC2)cc1 (stereo not shown) | 13%
CCOCCCNC(=O)CSc1nnc(-c2ccc(S(=O)(=O)N3CCCC3)cc2)n1C | 7.3%
O=C(CCc1ccccc1)NNC(=O)COc1ccc(Cl)cc1 | 21.5%
CC(Sc1nnnn1C)C(=O)Nc1ncc(Cl)cc1Cl (stereo not shown) | -0.587%
N#Cc1ccc(-c2nc3ccccc3c(=O)n2O)cc1 | 15.6%
O=C(c1ccco1)N(Cc1ccccc1)c1cccc([N+](=O)[O-])c1 | 6.11%
COC(=O)c1sc2nc3c(cc2c1N)COC(C)(C)C3 | 5.95%
Cc1ccc2nc(Nc3ccc(F)cc3)c3nncn3c2c1 | 8.04%
COc1ccc(/C=N/OCC(=O)N=Nc2c(O)[nH]c3ccc(Br)cc23)cc1 | 23.1%
CS(=O)(=O)N(CC(=O)Nc1cccc(Br)c1)Cc1ccccc1 | 12%

Source: paper PMC4336329 (PLoS ONE, 2015)
